The whole screen tested about 120,000 compounds, of which about 5,300 (4.4%) were called active. The inconclusive results got no clear call from the source; some entries with a clear call stand among them for comparison. Calls come from the whole dose curve; as a rule, active = well fitted inhibition curve with a large enough effect; inconclusive = small, poorly fitted or top-dose-only effect; inactive = no such curve, though single readings can be large or run the other way. Potencies beside an inconclusive call are fits to weak or partial responses and may not hold up.
assay: qHTS Primary assay for Inhibitors of Plasmodium falciparum Dd2 growth in vitro; note: nearly all actives have a fitted effect of over 65% in size;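 for activity, negative = inhibition: plate controls were DMSO vehicle for no effect and reference drug for full effect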; conditions: P. falciparum Dd2 growth, SYBR Green, 72 h; activity, negative = inhibition: at 28.9 µM (top of the series) unless noted; series mostly up to 28.9 µM
Summary of the method: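 Readout: SYBR Green fluorescence, 485 nm excitation, 535 nm emission, after ~16 h lysis at 37C. Before that, Dd2-infected red cells (2.5% hematocrit) grew 72 h with compound, 29 uM top final concentration.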
Potency is the fitted concentration of half-maximal effect; tags give direction and shape of the fitted curve.

| SMILES | Potency | activity, negative = inhibition |
| --- | --- | --- |
| c1ccc(CCc2nnc3n2CCNCC3)cc1 | inactive |  |
| O=C(c1ccc2c(c1)OCCO2)N1CCC(Cn2cc(CCO)nn2)CC1 | inactive |  |
| CCOc1ccccc1CN1CCN(c2cc(C)nc(N)n2)CC1CCO (stereo not given) | inconclusive: 7.94 µM [inhibitor, partial curve, poor fit] |  |
| O=C(NCc1ccc2c(c1)OCO2)[C@H]1CN2CCC1C[C@@H]2Cn1cc(CC2CCCCC2)nn1 (stereo not given in full) | inconclusive: 15.8 µM [inhibitor, single point] |  |
| Cc1ccc(-c2cc(C(=O)OCC(=O)c3ccccc3)c3cccc(Cl)c3n2)cc1 | inconclusive: 10 µM [inhibitor, single point] |  |
| CN(C)c1ccc(C(=O)NC[C@H]2C[C@@H]3CCN2C[C@@H]3CN2CCc3ccccc3C2)cc1 | inactive |  |
| COc1cc2c(cc1OC)C(CNC(=O)CC(C)C)N(C(=O)Nc1cccc(F)c1)CC2 (stereo not given) | inactive |  |
| CCC(Sc1nc2ccccc2c2nc(CCn3c(C)nc4ccccc43)nn12)C(=O)Nc1ccc(F)cc1 (stereo not given) | inconclusive: 1.41 µM [inhibitor, single point] |  |
| CNC(=O)Nc1cccn2nc(-c3ccccc3)nc12 | inactive |  |
| O=C(OCc1ccco1)c1ccc2c(c1)N(Cc1cccc(F)c1)C(=O)c1ccccc1S2 | inconclusive: 6.31 µM [inhibitor, partial curve, poor fit] |  |
| c1cncc(C2=NOC3(CCCN(CC4CCCCC4)C3)C2)c1 (stereo not given) | inconclusive: 11.2 µM [inhibitor, single point] |  |
| O=C(NC1CCN(c2cc(-c3cccs3)[nH]n2)CC1)c1cc(F)ccc1Cl | inactive |  |
| O=C(CSc1c2c(nc3ccc(Cl)cc13)CCCC2)NCc1ccccc1Cl | inconclusive: 12.6 µM [inhibitor, partial curve, poor fit] |  |
| Cc1ccc(C)c(OCC(=O)c2ccc3c(c2)N(CC(=O)NCC2CC2)C(=O)CO3)c1 | inactive |  |
| O=C1CCN(S(=O)(=O)c2ccccc2)CCCN(C(=O)C2CC2)CCN1 | inactive |  |
| Cc1ccc(C(=O)N2CCC(c3nn(-c4ccc(F)cc4)c(=O)[nH]3)CC2)cc1 | inconclusive: 10 µM [inhibitor, single point] |  |
| N=c1n(CCO)c2ccccc2n1Cc1ccccc1F |  | inconclusive: -83.2% [inhibitor] [at 0.594 µM] |
| CCc1ccc(NC(=O)c2sc3nc4c(cc3c2N)CN(CC)CC4)cc1 | active: 11.2 µM |  |
| Cc1nc(C(=O)N2CCC(Cc3nncn3-c3ccccc3)CC2)cs1 | inactive |  |
| COc1ccc(CCNc2nc(-c3ccc(Cl)cc3)cc(C(F)(F)F)n2)cc1OC | inconclusive: 8.91 µM [inhibitor, partial curve, poor fit] |  |
| CC(C(=O)N1CCc2onc(-c3ccc(F)c(F)c3)c2C1)n1ccnc1 (stereo not given) | inconclusive: 17.8 µM [inhibitor, single point] |  |
| O=C(c1nc(-c2ccsc2)c2cnccn12)N1CCCC1 | inconclusive: 15.8 µM [inhibitor, single point] |  |

| SMILES | Potency | activity, negative = inhibition |
| --- | --- | --- |
| Cn1c(CN2CC[C@H](c3nc4ccccc4[nH]3)C2)nc2ccccc21 | inconclusive: 3.16 µM [inhibitor, single point] |  |
| COC(=O)c1ccc(NC(=O)CCc2c(C)nn(-c3ccc(N4CCOCC4)nn3)c2C)cc1 | inconclusive: 20 µM [inhibitor, partial curve, poor fit] |  |
| O=C(Nc1ccc(F)cc1)c1ccc(Cn2nc(N3CCN(c4ccccc4)CC3)ccc2=O)o1 | inconclusive: 17.8 µM [inhibitor, single point] |  |
| CCC(CC)C(=O)Nc1c(C(=O)N2CCN(c3ccccc3)CC2)oc2ccccc12 | inconclusive: 10 µM [inhibitor, single point] |  |
| Cc1cc(CC(=O)N2CC[C@@H](NC(=O)c3ccccn3)[C@H](O)C2)on1 | inactive |  |
| CN(Cc1cc(-c2cccs2)n[nH]1)C[C@@H]1CCCN2CCCC[C@H]12 | active: 7.08 µM |  |
| CCO[C@H]1CN(Cc2ccccc2OCCn2ccnc2)C[C@@H]1O | inconclusive: 7.94 µM [inhibitor, partial curve, poor fit] |  |
| Cc1cnccc1CN(C)C(=O)c1cc(COc2ccc(-n3cncn3)cc2)on1 | inconclusive: 3.98 µM [inhibitor, single point] |  |
| Cc1ccc(-n2cc3c(c2-c2ccccc2Br)c(=O)n(C)c(=O)n3C)cc1N | active: 12.6 µM |  |
| CN1C[C@H](NCc2cccc(Cl)c2)CCC[C@@H](C(=O)N(C)Cc2cccnc2)CC1=O | inactive |  |
| O=C(OCc1ccccc1)N1CCOCC12CCN(Cc1ccc(F)cc1)CC2 | inconclusive: 3.55 µM [inhibitor, full curve, poor fit] |  |
| O=C(NCC(c1cccnc1)N1CCc2ccccc21)c1ccc(F)c(F)c1 (stereo not given) | inconclusive: 10 µM [inhibitor, single point] |  |
| Cc1cn2nc(C(=O)NCc3ccccc3F)cc2c(=O)[nH]1 | inconclusive: 10 µM [inhibitor, single point] |  |
| CC(C)CCN1C[C@@H]2C[C@H]1C(=O)N(C)c1ccccc1O2 | inconclusive: 7.08 µM [inhibitor, full curve] |  |
| CCc1nc2c(NC(=O)NC3CCCCC3)cccn2n1 | inconclusive: 20 µM [inhibitor, single point] |  |
| O=C(O)CCC1CCCN(S(=O)(=O)c2cccc(F)c2)C1 (stereo not given) | inconclusive: 2.82 µM [inhibitor, partial curve, poor fit] |  |
| Cc1csc(NC(=O)c2nc3c(o2)CCN(Cc2ccc4[nH]ccc4c2)CC3)n1 | inconclusive: 6.31 µM [inhibitor, partial curve, poor fit] |  |
| CCOc1ccc(CCNC(=O)CS(=O)(=O)Cc2nc(-c3cccc(Cl)c3)oc2C)cc1 | inconclusive: 17.8 µM [inhibitor, partial curve, poor fit] |  |
| Cc1cc(CN2C[C@@H](COCC3CC3)[C@H](c3ccccn3)C2)n(C)n1 | inconclusive: 11.2 µM [inhibitor, single point] |  |
| COCCN1CCCC1c1nc(C2CN(C(=O)c3ccccc3OC)C2)no1 (stereo not given) | inconclusive: 3.98 µM [inhibitor, single point] |  |
| COc1ccc(-c2cc(-c3ccccc3)c(C#N)c(SCC(O)CS(=O)(=O)Cc3ccccc3)n2)cc1 (stereo not given) | inconclusive: 17.8 µM [inhibitor, single point] |  |
| COc1ccc(OC2CCN(C(C)=O)CC2)c(C(=O)NCCc2c(C)n[nH]c2C)c1 | inactive |  |

| SMILES | Potency | activity, negative = inhibition |
| --- | --- | --- |
| O=C(NCCc1ccccc1)C1CN(S(=O)(=O)c2cccnc2)CC12CCCCC2 (stereo not given) | inconclusive: 20 µM [inhibitor, single point] |  |
| O=C1NCCCCCCN(Cc2ccncc2)[C@@H]2CN(Cc3ccncc3F)CC[C@@H]12 | inconclusive: 7.08 µM [inhibitor, partial curve] |  |
| O=C1CCN(C(=O)C2CCN(S(=O)(=O)c3cccs3)CC2)CCCCCCN1 | inconclusive: 8.91 µM [inhibitor, single point] |  |
| O=C(NCc1ccc(C(F)(F)F)cc1)C1CN(c2cccc(Cl)c2)C(=O)N1 (stereo not given) | inactive |  |
| COc1ccccc1-c1nc2c(c(SCC(=O)Nc3ccccc3F)n1)Cc1c(CO)cnc(C)c1O2 | inconclusive: 11.2 µM [inhibitor, single point] |  |
| O=C(NCc1cccs1)c1nc(-c2ccc(Cl)cc2Cl)c2ccccn12 | inconclusive: 15.8 µM [inhibitor, single point] |  |
| COc1ccccc1N1CCN(CCCNC(=O)c2nnc(Cc3c(F)cccc3Cl)o2)CC1 | inconclusive: 10 µM [inhibitor, single point] |  |
| CN1CCCC1COc1ccc2c(n1)CN(Cc1ccc(F)cc1)C(=O)CO2 (stereo not given) | inconclusive: 11.2 µM [inhibitor, partial curve, poor fit] |  |
| Cc1ccc2c(c1)nc1n2[C@@H](CNC(=O)c2cccnc2)COC1 | inactive |  |
| CN(Cc1cccnc1)c1nc2c(c(=O)[nH]1)CCN(Cc1cc(Cl)ccc1F)CC2 | inconclusive: 3.55 µM [inhibitor, single point] |  |
| CCn1ccc(C(=O)N2CC(Oc3cccc(-c4nc(C)no4)c3)C2)n1 |  | inactive: -24.4% [at 5.79 µM] |
| COc1cc(NC(=O)C2CCN(S(=O)(=O)c3c(C)noc3/C=C/c3cccs3)CC2)cc(OC)c1 | active: 11.2 µM |  |
| CCN1C(=O)c2ccccc2S(=O)c2ccc(C(=O)NCc3ccc(C)cc3)cc21 (stereo not given) | inactive |  |
| COc1ccc(C(=O)N[C@@H]2CCC[C@@H]2C(=O)NCc2ccc(C)c(C)c2)cc1 | inconclusive: 8.91 µM [inhibitor, single point] |  |
| COc1cccc([C@@H]2CCN(Cc3cccc4nsnc34)C[C@H]2O)c1 | inconclusive: 12.6 µM [inhibitor, partial curve, poor fit] |  |
| Cc1ccc2c(c1)c(=O)c(C(=O)c1ccccc1)cn2Cc1ccccc1F | active: 12.6 µM |  |
| FC(F)(F)c1cccc(Nc2cnc3ccc(N4CCOCC4)nn23)c1 | inconclusive: 25.1 µM [inhibitor, single point] |  |
| Cc1cccc(N2Cc3c(ncnc3NCc3ccc(C(F)(F)F)cc3)CN(C)C2=O)c1 | inactive |  |
| COC(=O)c1ccc(C2C=C(c3ccc(Cl)cc3)Nc3nc4ccccc4n32)cc1 (stereo not given) | inconclusive: 2.51 µM [inhibitor, full curve, poor fit] |  |
| Cn1ccc2cc(S(=O)(=O)N3CCCC(C(=O)NCc4ccc(F)cc4)C3)ccc21 (stereo not given) | inconclusive: 8.91 µM [inhibitor, single point] |  |
| O=C(NC1(C(F)(F)F)N=C(c2ccccc2)N(C2CCCCC2)C1=O)c1ccc(F)cc1 (stereo not given) | inconclusive: 11.2 µM [inhibitor, single point] |  |
